Consider 27 compounds from the supplement of paper PMC4604168 (melanoma cell lines).

The other results are listed elsewhere or left out. Most values come without repeats; read them as rough.
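Further: cell number obtained by counting DAPI-stained nuclei in high-throughput microscope images with image analysis software, screen run in 1,536-well plates.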

This assay deals with 501Mel. As to the kind of experiment: cell count relative to DMSO control; melanoma cells; higher = more viable cells. The settings on record: library dose: low library concentration; 72 h.
`Nc1ncn([C@H]2C[C@H](O)[C@@H](CO)O2)c(=O)n1` [decitabine] + CC(C)CCN1c2nc(Nc3cc(F)c(O)c(F)c3)ncc2N(C)C(=O)C1C [BID1870] (first compound 0.1 µM, partner dose 0.2 µM) returned a cell count of 89%. `Nc1ccn([C@@H]2O[C@H](CO)[C@@H](O)C2(F)F)c(=O)n1` [gemcitabine] + CC(C)CCN1c2nc(Nc3cc(F)c(O)c(F)c3)ncc2N(C)C(=O)C1C [BID1870] (first compound 0.0004 µM, partner dose 0.2 µM): the cell count turned out to be 94.3%. In the case of `Nc1ncn([C@H]2C[C@H](O)[C@@H](CO)O2)c(=O)n1` [decitabine] + CC1(C)NC(=O)N(c2ccc([N+](=O)[O-])c(C(F)(F)F)c2)C1=O [nilutamide] (first compound 0.1 µM, partner dose 1 µM) it was 98.7%. Turning to `CC(=O)O[C@@]12CO[C@@H]1C[C@H](O)[C@@]1(C)C(=O)[C@H](O)C3=C(C)[C@@H](OC(=O)[C@H](O)[C@@H](NC(=O)OC(C)(C)C)c4ccccc4)C[C@@](O)([C@@H](OC(=O)c4ccccc4)[C@H]21)C3(C)C` [Docetaxel] + CCc1ccc(CCOc2ccc(CC3SC(=O)NC3=O)cc2)nc1 [pioglitazone] (first compound 0.0001 µM, partner dose 2 µM), the cell count was found to be 62%. As to `Nc1ncn([C@H]2C[C@H](O)[C@@H](CO)O2)c(=O)n1` [decitabine] + Cc1cc(N2CCOCC2)cc2[nH]c(-c3c(NC[C@@H](O)c4cccc(Cl)c4)cc[nH]c3=O)nc12 [BMS536924] (first compound 0.1 µM, partner dose 0.2 µM), the cell count is 88.3%. The compound `Nc1ncn([C@H]2C[C@H](O)[C@@H](CO)O2)c(=O)n1` [decitabine] + O=S(=O)(c1ccccc1)N(CC(F)(F)F)c1ccc(C(O)(C(F)(F)F)C(F)(F)F)cc1 [T0901317] (first compound 0.1 µM, partner dose 1.4 µM) showed a cell count of 96.1%. For `Nc1ncn([C@H]2C[C@H](O)[C@@H](CO)O2)c(=O)n1` [decitabine] + COc1cc(N2CCC(N3CCN(C)CC3)CC2)ccc1Nc1ncc(Cl)c(Nc2ccccc2S(=O)(=O)C(C)C)n1 [NVP-TAE684] (first compound 0.1 µM, partner dose 0.08 µM), the cell count is 91.9%. The figure for `CC(=O)c1c(C)c2cnc(Nc3ccc(N4CCNCC4)cn3)nc2n(C2CCCC2)c1=O` [palbociclib] + Oc1nc(-c2ccc(C(F)(F)F)cc2)nc2c1CSCC2 [XAV939] (first compound 0.04 µM, partner dose 2 µM) is 70.1%; for `Nc1ccn([C@@H]2O[C@H](CO)[C@@H](O)C2(F)F)c(=O)n1` [gemcitabine] + O=c1cc(-c2cccc3c2Sc2ccccc2S3)oc(N2CCOCC2)c1 [KU55933] (first compound 0.0004 µM, partner dose 1 µM) it is 118%. Compound `Nc1ncn([C@H]2C[C@H](O)[C@@H](CO)O2)c(=O)n1` [decitabine] + N#Cc1c(O)c2c(-c3ccc(-c4ccccc4O)cc3)csc2[nH]c1=O [A769662] (first compound 0.1 µM, partner dose 2 µM) returned a cell count of 97.7%. `Nc1nc(F)nc2c1ncn2[C@@H]1O[C@H](CO)[C@@H](O)[C@@H]1O` [fludarabine] + CN(C)S(=O)(=O)c1ccc2c(c1)/C(=C/c1cc3c([nH]1)CCCC3)C(=O)N2 [SU6656] (first compound 0.2 µM, partner dose 0.4 µM) yielded a cell count of 5.14%. `Nc1ncn([C@H]2C[C@H](O)[C@@H](CO)O2)c(=O)n1` [decitabine] + CCc1ccc(CCOc2ccc(CC3SC(=O)NC3=O)cc2)nc1 [pioglitazone] (first compound 0.1 µM, partner dose 2 µM) returned a cell count of 89.4%. In the case of `CC(=O)c1c(C)c2cnc(Nc3ccc(N4CCNCC4)cn3)nc2n(C2CCCC2)c1=O` [palbociclib] + CN(NC(=O)CC(=O)NN(C)C(=S)c1ccccc1)C(=S)c1ccccc1 [STA4783] (first compound 0.04 µM, partner dose 0.006 µM), the cell count was determined as 35.6%. Compound `CC(=O)O[C@@]12CO[C@@H]1C[C@H](O)[C@@]1(C)C(=O)[C@H](O)C3=C(C)[C@@H](OC(=O)[C@H](O)[C@@H](NC(=O)OC(C)(C)C)c4ccccc4)C[C@@](O)([C@@H](OC(=O)c4ccccc4)[C@H]21)C3(C)C` [Docetaxel] + CS(=O)(=O)CCNCc1ccc(-c2ccc3ncnc(Nc4ccc(OCc5cccc(F)c5)c(Cl)c4)c3c2)o1 [lapatinib] (first compound 0.0001 µM, partner dose 0.8 µM) came in with a cell count of 36.8%. Take `CC(=O)O[C@@]12CO[C@@H]1C[C@H](O)[C@@]1(C)C(=O)[C@H](O)C3=C(C)[C@@H](OC(=O)[C@H](O)[C@@H](NC(=O)OC(C)(C)C)c4ccccc4)C[C@@](O)([C@@H](OC(=O)c4ccccc4)[C@H]21)C3(C)C` [Docetaxel] + c1cc(-c2cnn3cc(-c4ccc(OCCN5CCCCC5)cc4)cnc23)ccn1 [Dorsomorphin] (first compound 0.0001 µM, partner dose 0.4 µM): the cell count came out at 59.2%. `CO[C@H]1C[C@@H]2CC[C@@H](C)[C@@](O)(O2)C(=O)C(=O)N2CCCC[C@H]2C(=O)O[C@H]([C@H](C)C[C@@H]2CC[C@@H](OCCO)[C@H](OC)C2)CC(=O)[C@H](C)/C=C(\C)[C@@H](O)[C@@H](OC)C(=O)[C@H](C)C[C@H](C)/C=C/C=C/C=C/1C` [everolimus] + COc1cc2ncnc(Nc3ccc(Oc4ccccc4)cc3)c2cc1OC [SrcI1] (first compound 0.02 µM, partner dose 2 µM) came in with a cell count of 80.8%. In the case of `Nc1ncn([C@H]2C[C@H](O)[C@@H](CO)O2)c(=O)n1` [decitabine] + COC(=O)c1sccc1S(=O)(=O)Nc1ccc(Nc2ccccc2)cc1OC [GSK0660] (first compound 0.1 µM, partner dose 1 µM) it was 98%; in that of `Nc1nc(F)nc2c1ncn2[C@@H]1O[C@H](CO)[C@@H](O)[C@@H]1O` [fludarabine] + CCN(CC)CCCCNc1ncc2cc(-c3cc(OC)cc(OC)c3)c(NC(=O)NC(C)(C)C)nc2n1 [PD173074] (first compound 0.2 µM, partner dose 0.1 µM), 4.82%; in that of `Nc1ccn([C@@H]2O[C@H](CO)[C@@H](O)C2(F)F)c(=O)n1` [gemcitabine] + Oc1nc(-c2ccc(C(F)(F)F)cc2)nc2c1CSCC2 [XAV939] (first compound 0.0004 µM, partner dose 2 µM), 104%. Compound `Nc1ccn([C@@H]2O[C@H](CO)[C@@H](O)C2(F)F)c(=O)n1` [gemcitabine] + COc1ccc2c(c1)CCC1C2CCC2(C)C(NCCCCCCN3C(=O)C=CC3=O)CCC12 [U73122] (first compound 0.0004 µM, partner dose 0.4 µM) came in with a cell count of 102%. Take `CC(=O)c1c(C)c2cnc(Nc3ccc(N4CCNCC4)cn3)nc2n(C2CCCC2)c1=O` [palbociclib] + O=c1cc(-c2cccc3c2Sc2ccccc2S3)oc(N2CCOCC2)c1 [KU55933] (first compound 0.04 µM, partner dose 1 µM): the cell count is 60.8%.

For `CC(=O)c1c(C)c2cnc(Nc3ccc(N4CCNCC4)cn3)nc2n(C2CCCC2)c1=O` [palbociclib] + Cc1cc([N+](=O)[O-])ccc1NS(=O)(=O)c1cc(Cl)ccc1Cl [FH535] (first compound 0.04 µM, partner dose 1 µM), the cell count came to 58.2%. Regarding `Nc1ncn([C@H]2C[C@H](O)[C@@H](CO)O2)c(=O)n1` [decitabine] + CCCCCCCCCCCC1=C(O)C(=O)C=C(O)C1=O [Embelin] (first compound 0.1 µM, partner dose 1.2 µM), the cell count is 100%.

The compound `Nc1ccn([C@@H]2O[C@H](CO)[C@@H](O)C2(F)F)c(=O)n1` [gemcitabine] + CCCCCCCCCCCC1=C(O)C(=O)C=C(O)C1=O [Embelin] (first compound 0.0004 µM, partner dose 1.2 µM) registered a cell count of 104%.

`Nc1nc(F)nc2c1ncn2[C@@H]1O[C@H](CO)[C@@H](O)[C@@H]1O` [fludarabine] + CC(C)CCN1c2nc(Nc3cc(F)c(O)c(F)c3)ncc2N(C)C(=O)C1C [BID1870] (first compound 0.2 µM, partner dose 0.2 µM): the cell count turned out to be 5.84%. In the case of `CO[C@H]1C[C@@H]2CC[C@@H](C)[C@@](O)(O2)C(=O)C(=O)N2CCCC[C@H]2C(=O)O[C@H]([C@H](C)C[C@@H]2CC[C@@H](OCCO)[C@H](OC)C2)CC(=O)[C@H](C)/C=C(\C)[C@@H](O)[C@@H](OC)C(=O)[C@H](C)C[C@H](C)/C=C/C=C/C=C/1C` [everolimus] + COc1ccc(-c2ccc3c(N4CCOCC4)nc(N4C[C@@H](C)O[C@@H](C)C4)nc3n2)cc1CO [KU0063794] (first compound 0.02 µM, partner dose 0.02 µM) it was 52.1%. The figure for `CC(=O)O[C@@]12CO[C@@H]1C[C@H](O)[C@@]1(C)C(=O)[C@H](O)C3=C(C)[C@@H](OC(=O)[C@H](O)[C@@H](NC(=O)OC(C)(C)C)c4ccccc4)C[C@@](O)([C@@H](OC(=O)c4ccccc4)[C@H]21)C3(C)C` [Docetaxel] + CCN(CC)CCCCNc1ncc2cc(-c3cc(OC)cc(OC)c3)c(NC(=O)NC(C)(C)C)nc2n1 [PD173074] (first compound 0.0001 µM, partner dose 0.1 µM) is 67.4%.
